# Source: PubChem BioAssay (NCI)
# Several values for one entry are separate records, joined by “and”; a condition that tells them apart may be missing. Identical values can stand only once.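 Tested at 5 concentrations; 48 h exposure; 96-well plates; endpoints linearly interpolated, else capped at highest concentration. GI50: concentration for 50% inhibition of growth. The concentration for full growth arrest is given as TGI.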 Activity calls are given as the source filed them. Cut-off read from the data, not from the text of the source: active = GI50 below about 0.43 µM; inactive = the rest.
# System: NCI-H322M lung
# Experiment: NCI anticancer screen, dose series, 48 h
SMILES,GI50,TGI,outcome
COC1C(O)CC(OC2CC(OC3CC(O[C@@H]4C(=O)c5c(cc6cc(OC7CC(OC8CC(O)C(O)C(C)O8)C(O)C(C)O7)c(C)c(O)c6c5O)CC4[C@H](OC)C(=O)C(C)=O)OC(C)C3O)OC(C)C2O)OC1C (stereo partly drawn),0.0114 µM,0.114 µM,–
C(=Nc1ccccc1C1SCCCS1)c1ccccc1,–,> 100 µM,–
Nc1cc(C(=O)NC2C3CC4CC(C3)CC2C4)[nH]c(=S)n1 (stereo not drawn),–,> 100 µM,–
CCCCCCCCCCCC[C@@H](O)[C@H]1CC[C@H]([C@H](O)CCCC[C@H](O)CCCCC[C@@H](O)CC2=C[C@H](C)OC2=O)O1,0.31 µM,9.8 µM and 18.8 µM,–
COc1ccc(N=NC(=O)NC(CC(C)C)C(=O)NC(Cc2ccccc2)C(=O)O)cc1 (stereo not drawn),–,> 100 µM,–
CCOC(=O)C1=C(C)N=C2SC=C(c3ccccc3)N2[C@H]1c1cn[nH]c1-c1ccc(Cl)cc1,11.8 µM,24.5 µM,–
CCCCN(CCCC)CC(C(=O)Nc1ccccc1)/C(C)=N\NC(=O)c1ccncc1 (stereo not drawn),–,> 100 µM,–
COc1ccc(C(=O)c2c(C(C(=O)c3ccc(OC)cc3)C(=O)c3ccc(OC)cc3)n(C(=O)c3ccc(OC)cc3)c3ccccc23)cc1,–,> 100 µM,–
COc1ccc(NC(=O)CC(=O)NN)cc1,–,> 100 µM,–
CC(=O)NNc1nc(C)c(C(=O)NNC(=O)C(=O)Nc2c(C)cccc2C(C)C)s1,–,> 100 µM,–
CC(C)=CCC/C(C)=C/CCC(C(=O)COCc1ccccc1)P1(=O)OC(C)(C)CN1C(C)(C)C (stereo not drawn),–,> 100 µM,–
NNC(=O)c1n[nH]n(N)c1=S,–,> 100 µM,–
CC12CCC(=O)N1c1cnccc1N2 (stereo not drawn),–,> 100 µM,–
COC(=O)C1(Cc2ccccc2)Cc2cc3c(cc2C1)CCC3,–,78.1 µM,–
CCCCCCCCCc1c(Cl)nc(Cl)nc1Cl,–,31.8 µM,–
CCOC(=O)/C(=N/Nc1ccc(C)cc1)N1C(=S)C=C(C)NN(C)C1=S,–,> 100 µM,–
CC(=O)O[C@H]1CC[C@]2(C)[C@H]3CC=C4[C@@H]5CC(C)(C)CC[C@]5(C(=O)NCCNCCNCCN)CC[C@@]4(C)[C@]3(C)CC[C@H]2C1(C)C,1.58 µM,2.94 µM,–
CCN(CC)c1ccc(C2=NN(C(C)=O)C(c3cc(OC)c(OC)c(OC)c3)C2)cc1 (stereo not drawn),0.904 µM,11.9 µM,–
COc1ccc(-n2c(N)c(C#N)c(C#N)c2-c2cccc([N+](=O)[O-])c2)cc1,–,> 100 µM,–
COc1ccc(-c2cc(=O)c3cc(C)cnc3[nH]2)cc1,–,> 100 µM,–
C[O+]=c1cccc2ssnc1-2,–,> 100 µM,–
O=C(CI)OCC(COC(=O)CI)OC(=O)CI,17 µM,35.6 µM,–
Cc1ccc(S(=O)(=O)n2cc(/C=C/C#N)c(/C=C/C#N)c2)cc1,–,> 100 µM,–
CCOC(=O)c1nnsc1NC(=O)NCCCCCCn1c(=O)n(CCCCCCNC(=O)Nc2snnc2C(=O)OCC)c(=O)n(CCCCCCNC(=O)Nc2snnc2C(=O)OCC)c1=O,–,> 100 µM,–
O=c1cnnc2sc(=S)[nH]n12,–,> 100 µM,–

SMILES,GI50,TGI,outcome
Cc1ccc(C2C(C(=O)C(C)(C)C)N2S(=O)(=O)c2ccc(C)cc2)cc1 (stereo not drawn),–,> 100 µM,–
O=C(c1ccccc1)c1c(C(F)(F)F)n([O-])c2ccc(F)cc2[n+]1=O,1.89 µM,3.78 µM,–
S=c1ncc2n[nH]nc2[nH]1,–,> 100 µM,–
Cc1cc(S(=O)(=O)Nc2n[nH]c(-c3ccc(Cl)cn3)n2)c(S)cc1Cl,–,> 100 µM,–
COP(=O)(CC(=O)C1OC(C)(C)OC1C(O)COCc1ccccc1)OC (stereo not drawn),–,> 100 µM,–
CC[C@]1(O)CC2CN(CCCc3c([nH]c4ccccc34)[C@@](C(=O)OC)(c3cc4c(cc3OC)N(C)C3C45CCN4CC=C[C@](CC)(C45)C(OC(C)=O)[C@@]3(O)C(=O)OC)C2)C1 (stereo partly drawn),–,> 10 µM,–
CCOC(=O)c1ccc2c(c1)nc(-c1ccc(Cl)cc1)n2-c1cc(C(C)(C)C)[nH]n1,5.75 µM,> 100 µM,–
CN[C@H](C)[C@@H](OC)c1ccccc1,–,> 100 µM,–
O=C(COc1ccc2c(=O)cc(-c3ccc(Cl)cc3)oc2c1)N1CCN(c2ccccc2)CC1,–,> 100 µM,–
CC(C)CC(NC(=O)C(CSc1ccc([N+](=O)[O-])cc1)Cc1ccccc1)C(=O)Nc1ccccc1 (stereo not drawn),–,> 100 µM,–
CCCCCCCCCCOC1C(C(O)CNCCCN(C)C)OC2OC3(CCCCC3)OC21 (stereo not drawn),–,17.9 µM,–
NC(=O)c1nnsc1N/N=C/c1ccc([N+](=O)[O-])cc1,–,> 100 µM,–
Cn1c(-c2ccccc2)c2cc3nc4ccccc4nc3cc2c1-c1ccccc1,–,> 100 µM,–
O=C(NCc1ccccc1)c1cc2ccccc2oc1=Nc1ccccc1F,–,> 100 µM,–
CC(C)=CC1CC(=O)C1(C)Sc1ccccc1 (stereo not drawn),–,> 100 µM,–
Cc1ccccc1NC(=O)c1cc2cc(N=Nc3ccccc3C(=O)O)ccc2oc1=O,–,29.4 µM,–
COC(=O)C1(COCc2ccccc2)CCCC2OC21 (stereo not drawn),–,–,inactive
Cc1nc2ccc(Nc3nc(Cl)nc(Nc4ccc(F)cc4)n3)cc2n1Cc1ccccc1,7.51 µM,20.9 µM,–
COc1c(Cl)cc(Cl)cc1S(=O)O,–,> 100 µM,–
Cc1[nH]c2ccccc2c1-c1n[nH]c(=O)c2ccccc12,–,87.3 µM,–
N#CC12CC3=C(N=C1NC1=C(CCc4ccccc41)C2)c1ccccc1CC3 (stereo not drawn),–,> 73.9 µM,–
Cc1ccc(S(=O)(=O)CC(=O)CC(=O)C(=O)Nc2cccc(C(F)(F)F)c2)cc1,–,> 100 µM,–
N#CCC(=O)N/N=C(\CCN1CCCC1)CC(c1ccccc1)c1c(O)c2ccccc2oc1=O (stereo not drawn),–,> 100 µM,–
CCC1(CC)C(=O)N(C(=O)c2ccc(C)cc2)N(C(=O)c2ccc(C)cc2)C1=O,–,> 75 µM,–
OCCN(CCO)CCn1cnc2c(NCc3ccccc3)ncnc21,–,> 100 µM,–

SMILES,GI50,TGI,outcome
CCOc1ccc(Nc2nc(C)c(C(=O)/C=C/c3ccc(Cl)cc3Cl)s2)cc1,–,> 100 µM,–
c1ccc(CSCCNCCN(CCNCCSCc2ccccc2)CCNCCSCc2ccccc2)cc1,1.35 µM,2.66 µM,–
Cc1cc2c(cc1C)[n+](=O)c(C(=O)C(C)(C)C)c(C(F)(F)F)n2[O-],39.2 µM,> 100 µM,–
COc1ccc(N2C(=O)/C(=C/c3ccc(N(CCC#N)CCC#N)cc3C)N=C2/C=C\c2ccccc2)cc1,–,> 100 µM,–
Cc1csc(-n2nc(C)cc2C)n1,–,> 100 µM,–
Nc1ccn(C2OC(CO)C(O)C2(F)F)c(=O)n1 (stereo not drawn),–,> 100 µM,–
[N-]=[N+]=NC1=C(C(=O)c2ccccc2)C(=O)c2cccc3cccc1c23,–,> 100 µM,–
CC(C)(C)OC(=O)NC(Cc1ccc(OCc2ccccc2)cc1)C(=O)NC(COCc1ccccc1)C(=O)Oc1c(Cl)c(Cl)c(Cl)c(Cl)c1Cl (stereo not drawn),–,78.5 µM,–
O=C(c1cc(Cl)ccc1Cl)N1CCN(c2ccc(Cl)c(Cl)c2)CC1,–,> 100 µM,–
O=C1Nc2ccccc2/C1=C/C(=O)c1ccc(N2CCCC2)cc1,4.28 µM,> 100 µM,–
O=C(O)CCc1ccc(-c2ccccc2)[nH]1,–,> 100 µM,–
O=c1[nH]nc(Cc2ccccc2)n1/N=C/c1ccc(/C=N/n2c(Cc3ccccc3)n[nH]c2=O)cc1,–,> 100 µM,–
C#CCCCC(=C)C[C@@H]1OC(=O)[C@H](C)[C@@H]1O,–,> 100 µM,–
C=C(C)c1ccccc1 (tested in a mixture with another compound),–,> 100 µM,–
O=C(O)/C=C/C=C/c1ccc2c(c1)OCO2,–,> 100 µM,–
O=c1[nH]c2nc3ccccc3n2c(O)c1-c1ccccc1,–,> 100 µM,–
Nc1nc(N)c(-c2cccc(C(F)(F)F)c2)c(Cc2cccc(C(F)(F)F)c2)n1,–,16.2 µM,–
O=C(O)c1ccc(Cc2ccccc2C(=O)O)cc1,–,> 100 µM,–
O=C(Nc1ccccc1)C(=O)C(C(=O)c1ccccc1F)C1OC(=O)c2ccccc21 (stereo not drawn),–,75.9 µM,–
O=C(Nn1cc(F)c(=O)[nH]c1=O)C12CC3CC(CC(C3)C1)C2,–,> 100 µM,–
CC12OC(CC(O)C1O)n1c3ccccc3c3c4c(c5c6ccccc6n2c5c31)C(=O)N(CCN1CCCC1)C4=O (stereo not drawn),1.73 µM,11 µM,–
OCCCc1n(Cc2ccc3ccccc3c2)c2ccccc2[n+]1Cc1ccc2ccccc2c1,2.15 µM,9.1 µM,–
O=[N+]([O-])c1ccc(N/N=C2\C=CCCC2)c([N+](=O)[O-])c1,–,> 100 µM,–
Cc1nc(N)nc(N)c1CCCCc1ccccc1,–,72.4 µM,–
CC(=O)Nc1nc2ncc(C=O)nc2c(=O)[nH]1,–,> 100 µM,–

SMILES,GI50,TGI,outcome
CCC(=O)O[C@@H]([C@H](C)[C@H]1OC(CC)=C(C)C(=O)[C@@H]1C)[C@@H](C)C(=O)CC,> 100 µM,> 100 µM,–
S=C1C(=Nc2ccccc2)N(C2CCCCC2)C(=NC2CCCCC2)N1c1ccccc1,–,> 100 µM,–
CC(=O)N/N=C1/NN(C(C)=O)C2(S1)C(=O)Nc1ccc(C)cc12 (stereo not drawn),–,> 100 µM,–
Cc1cc(C(=O)CBr)c(CN2C(=O)c3ccccc3C2=O)c(=O)n1C,–,84.4 µM,–
CN(C)c1ccc(/C=C(\C#N)c2nc(-c3cc4ccccc4oc3=O)cs2)cc1,–,> 50 µM,–
COc1ccc(OC)c(C(=O)c2cccc(C(=O)c3cc(OC)ccc3OC)n2)c1,–,> 100 µM,–
COc1ccc(-c2cc(=O)oc3ccc(Cl)cc23)cc1F,0.868 µM and 2.59 µM,> 100 µM,–
O=C1c2ccccc2-c2c1c1ccc([N+](=O)[O-])cc1c(=O)n2CCCN1CCOCC1,12 µM,> 84.9 µM,–
CN(C)C(=S)OC(Cn1cncn1)c1ccc(Cl)cc1Cl (stereo not drawn),–,> 100 µM,–
CS(=O)(=O)Nc1ccc(Nc2c3ccccc3nc3cc([N+](=O)[O-])ccc23)cc1,4.39 µM,17.7 µM,–
CC(C)(C)OC/C=C(\Br)CO,–,> 100 µM,–
COc1cccc(C(=O)c2sc(Nc3ccc(N4CCN(C(C)C)CC4)cc3)nc2N)c1,1.85 µM,> 15.9 µM,–
CCOc1ccccc1N1CSc2nnc(-c3ccccc3)n2C1,–,> 100 µM,–
Cc1cccc2c1CC1(Cc3ccccc3C1=O)C2=O (stereo not drawn),–,> 100 µM,–
Cc1cc(S(=O)(=O)O)ccc1N=Nc1c(O)ccc2ccccc12,–,> 100 µM,–
O=C1Nc2ccc(Cl)cc2C(=O)N2CCC[C@@H]12,–,> 100 µM,–
CN(C)c1ccc(C(C#N)NNC(=O)Cc2ccccc2)cc1 (stereo not drawn),–,> 100 µM,–
O=C(c1ccccc1)C(c1ccccc1)C1(O)C(=O)Nc2c(Cl)ccc(Cl)c21 (stereo not drawn),–,70.1 µM,–
CC(C)Cc1ccc(C(C)C(=O)NCc2ccc(Cn3c(=O)sn(CCCCl)c3=O)cc2)cc1 (stereo not drawn),2.13 µM,5.92 µM,–
COc1cc(/C=C2\CN(S(=O)(=O)c3ccc(C)cc3)C/C(=C\c3cc(CN4CCOCC4)c(O)c(OC)c3)C2=O)cc(CN2CCOCC2)c1O,6.17 µM,> 100 µM,–
O=C1N[C@H](Cc2cnc[nH]2)C(=O)N2CCC[C@@H]12,–,> 100 µM,–
O=C(O)CN(CCN(CC(=O)O)CC(=O)O)CC(=O)O,> 100 µM,> 100 µM,–
COc1cc(-c2nc3nc(N4CCN(C)CC4)ccc3[nH]2)c(OC)c2[nH]c(CO)nc12,–,> 100 µM,–
CCCCCCCCCCCCCCCCSC(=NCC)NCC,3.28 µM,11.3 µM,–
CCOC(=O)c1nnsc1NC(=O)NN,–,> 100 µM,–
